Test results published in the RNAGym collection of RNA variant scans (doi:10.7554/elife.90254).
The source gives no read counts; variants with many changes may rest on few reads.

B1: LINE1-mini (parent)
chain: GGCAGAGCUCAACACAGCGUGGCAAAGUGGCUGUGGCUAGACUGCC

Variants of: B1
Test: self-cleavage, relative activity (ratio to wild type); higher = more cleavage; in vitro, sequencing; the parent is a self-cleaving ribozyme

| Variant | self-cleavage |
| --- | --- |
| GGUAAAGCUCAACACAGCGUGGCGAAGUGGCUGUGGCUAGACUGCC | 0.31 |
| GGUACAGCUCAACACGGCGUGGCAAAGUGGCUAUGGCUAGACUGCC | 0.07 |
| GGUAGAGCUCAACACAGCAUGGCAAAGUGGGUGCGGCUAGACUGCC | 0.03 |
| GGUAGAUCUCAACCCAACGUGGCAAAGUGGCUGUGGCUAGACUGCC | 0.19 |
| GGUAGAGCUCAACAGACUGUGGCAAAAUGGCUCUGGCUAGACUGCA | 0.03 |
| GGUAGAGCUCAACACAUCAUGGCAAAGUGGCUGUGGCUAGACUGCC | 0.57 |
| GGUAGAGCUUAACACAGUGUGGCAAAGUGGCUGUAGCUAGACUGCC | 0.07 |
| GGUAGAGCUGAACACAGCGUGGCAAAGUGGCUGGGGCUACACUGCC | 0 |
| GGUAGAGUUCAACACAGCGUGCCAAAGUGGCUGUGGCUAGACUUCC | 0.06 |
| GGUAGAGCUCAACAAAGCGUGGCCAAGCGGCUGUGGCUCGACUACC | 0.06 |
| GGUAGAGCUCAACACACCGUGGCAAAGUGGCUUUGGCUAGACCGCC | 0 |
| GGUAGAGCUCAAUACAGCGUGGCAAUGUGGCAGUGGCUAGAUUGCC | 0.21 |
| GGUAGAGCUAGACACAGCGUGGCACAGUGGCUGUGGCUAGACUGCG | 0 |
| GGUAGAGCUCAACACAGCGUGGGAAAGUGACAAUUGCUAGACUGCC | 0.05 |
| GGUAGAGCUCAACACAGCGUGGCAAAGUGGCUGUGGCUAGAGUGAC | 0.01 |
| GGUAGAGCUAAACAGAGCGUGGCAAAGUGGCUGUGGCUAGACUGCC | 0.01 |
| GGUAGAGCUAGACGUAGCGUGGCAAAGUGGCUGUGGCUCAACUCCC | 0.01 |
| GGUAGAGCUCAACAAAGCCUGGCAAAGUCGCUGUGGCUAGACUGCC | 0.03 |
| GGUAGAGCUCAACACAGAGGGGCAAAGUGGCUGUGUCUAGACUGCC | 0.07 |

| Variant | self-cleavage |
| --- | --- |
| GGUAGAGUUCACCACAAUGUGGGAAAGUGCCUGUGGCUAGACAGCC | 0.02 |
| GGUACAGCUCAACACAGCGUGGCAAAUUGCCUGUGGCUAGACUGCC | 0.21 |
| GGUAUAGCUCAACACAGCGUGGCAAAGUGGCCGUGGCUAGACUGCC | 0.05 |
| GGUAUAGAUCAACACAGCGUGACACAGUGGGUGUGGCUGGACUGCC | 0.46 |
| GGUAGAGCUCAACACAUCGUGGCAAAGUUGCUGUGGCUAGACUGCC | 0.05 |
| GGUAGAUCUCAACACAGAGUGGCAAAGGGGCUGUGGCUAGACUGCC | 0.77 |
| GGUAGAGCUAAACACAGCGUGGCAACGUGGCUGUGGCUAGACUGCC | 0.01 |
| GGUAGAGCUCAACACAGAGUGGCAAAGUGGCUGUGGCUAGACUGGC | 0.03 |
| GGUAGAGCUCAACACAAUUUGGCAAAGAGGCUGUGGCUAUACUGCC | 0.01 |
| GGUAGAGCUUAACACAACGUGCCAAAGUGACUGUGGCUAGAAUGCC | 0.02 |
| GGUAGAACUCAACACAGCGUGUCUAAGUGGCUGAGGCUAGACUGCC | 0.09 |
| GGUAGAACUCAUCACAGCGUGGCAAAGUGGCUGUGGCUAGACUGGC | 0.22 |
| GGUAGAGCUCAACACAGCGUGGAAAAGUGGCUGUGGCAAGACUGAC | 0.07 |
| GGUAGAGCUCAACAAAGCAUGGCAAAGUGGCUGGGGUUAGACUGCC | 0.03 |
| GGUAAAGCUCAACACAAAGUGGCAAAGUGGCUCUGGCUAGACUGCC | 0.02 |
| GGUAGAGCUCAACACAGCGUGGCAAAGUGGAUGUGACUAAACUGCC | 0.16 |
| GGUAGAGCUCAACACAGAGUGGCAAAGUGUCUGUGGAUAGAUUUCG | 0.65 |
| GGUAAAGCUCAACACAGCGUGGCAAAGUGGCUGUGGCUAGAAUGCC | 0.08 |
| GGUAGACCCCAACACAGCGUGGCAAAAUGGCUGUGGCUAGACUGCC | 0.03 |

| Variant | self-cleavage |
| --- | --- |
| GGUAGAGCUGAACACAGCGUGGCAAAGUGGCUUUGGCUAGGCUGCC | 0.01 |
| GGUAGAACUCUACUCGGCGUGGCAACGUUGCUGUGGCUAGACUGCC | 0.01 |
| GGUAGAGCUUAACACAGCGUGGCAAAGGGGCUGUGGCUGGAGUGCC | 0.07 |
| GGUAGAGAUCAACACAGCGUGGCAAAGUAGCUGUGGCUUGACUGCC | 0.09 |
| GGUAGAGCUCAACACAUCGUGGCAAAGUGGCUGUGGCUAGACUGCA | 0.09 |
| GGUAGAGCUCAACACAUCGUGGUAAAGUGGCUGUGGCUAGACUUCC | 0.02 |
| GGUAGAGCUCAACACAUCGUGGCAAAGCGGCUGUGGCUAGACUGCC | 0.09 |
| GGUAGAGUUAAAUACAGCUUAGCAAAGUGGCUGUGGCUAGUCUGCC | 0.02 |
| GGUACAGCUCAACACAGCCUGGCAAUGUGGCUGUGGCUAGACUGCA | 0.06 |
| GGUAGAGCUUUACACACCGUAGCAAAGUGGCUGUGGCUAGACUGCC | 0.06 |
| GGUAUUGCUUAACACAGCGUGGCAAAGUGGCUAUGGCUAGACUGCC | 0.03 |
| GGUAGAGCUCAAGAAGGCGUGGCAUAGUGACUGUGGCUAGACUGCG | 0.05 |
| GGUAGAGCUCAACACAGGGUGGCCAAGUGGCUGUGGCUUGACUUCC | 0.01 |
| GGUAAAGCUCAACACAGCGUGGCAAAGUGGCUGUGCCUAGCCGGCC | 0.08 |
| GGUAGAGCUCAAUACAGCGUGGUAAAGUUGUUGUGGCUACGCUGCC | 0.26 |
| GGUAGAGCUUAACACAGCGUGGCACAGUGGCUGUGGCUAGACUGCC | 0.07 |
| GGUAGAGCUCAACACAGCGUGGCAAAGUGGUUGAGGUUAGACUGCC | 0.06 |
| GGUAGAGCUCAACACAGGGUGGCAAAGUGGCUGUGGCUAGACUGCA | 0.12 |
